# Test results published in the supplement of paper PMC8728848.
# This is one part of the list.
# B1: FimD (Bordetella pertussis) (protein)
# chain: MPARVISFCGAALAVWAGLAVQPAMAVDPPVDCGRALGLHFWSSASLISDQTPDGTLIGKPVVGRSLLSKSCKVPDDIKEDLSDNHDGEPVDIVLELGSNYKIRPQSYGHPGIVVDLPFGSTEETGIAIYIDFGSSPMQKVGERQWLYPQKGEVLFDVLTINGDNAEVRYQAIKVGPLKRPRKLVLSQFPNLFTYKWVFMRGTSQERVLAQGTIDTDVATSTIDLKTCRYTSQTVSLPIIQRSALTGVGTTLGMTDFQMPFWCYGWPKVSVYMSATKTQTGVDGVALPATGQAAGMASGVGVQLINGKTQQPVKLGLQGKIALPEAQQTESATFSLPMKAQYYQTSTSTSAGKLSVTYAVTLNYD
# Key:
# Test in all cases: glycan array binding signal (z-score within array); higher = stronger binding
# Settings in all cases: glycan notation: IUPAC condensed, linker removed
# [1] = biological target: Fuc(a1-2)Gal
# Outline: (§1)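 Columns mapping to the same glycan were averaged after glycan names were converted to IUPAC-condensed notation. The data come from 3228 arrays in the Consortium for Functional Glycomics database, limited to those with an available protein sequence. Binding is reported as a within-array Z-score averaged across arrays of one protein sequence and across linkers.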
# [2] = biological target: Fuc(a1-2)Gal(b1-3)GalNAc
# Outline: as §1
# [3] = biological target: Fuc(a1-2)Gal(b1-3)GalNAc(a1-3)[Fuc(a1-2)]Gal(b1-4)Glc
# Outline: as §1
# [4] = biological target: Fuc(a1-2)Gal(b1-3)GalNAc(a1-3)[Fuc(a1-2)]Gal(b1-4)GlcNAc
# Outline: as §1
# [5] = biological target: Fuc(a1-2)Gal(b1-3)GalNAc(b1-3)Gal
# Outline: as §1
# [6] = biological target: Fuc(a1-2)Gal(b1-3)GalNAc(b1-3)Gal(a1-4)Gal(b1-4)Glc
# Outline: as §1
# [7] = biological target: Fuc(a1-2)Gal(b1-3)GalNAc(b1-4)[Neu5Ac(a2-3)]Gal(b1-4)Glc
# Outline: as §1
# [8] = biological target: Fuc(a1-2)Gal(b1-3)GlcNAc
# Outline: as §1
# [9] = biological target: Fuc(a1-2)Gal(b1-3)GlcNAc(b1-2)Man(a1-3)[Fuc(a1-2)Gal(b1-3)GlcNAc(b1-2)Man(a1-6)]Man(b1-4)GlcNAc(b1-4)GlcNAc
# Outline: as §1
# [10] = biological target: Fuc(a1-2)Gal(b1-3)GlcNAc(b1-2)Man(a1-3)[Fuc(a1-2)Gal(b1-3)GlcNAc(b1-2)Man(a1-6)]Man(b1-4)GlcNAc(b1-4)[Fuc(a1-6)]GlcNAc
# Outline: as §1
# [11] = biological target: Fuc(a1-2)Gal(b1-3)GlcNAc(b1-3)Gal(b1-4)Glc
# Outline: as §1
# [12] = biological target: Fuc(a1-2)Gal(b1-3)GlcNAc(b1-3)GalNAc
# Outline: as §1
# [13] = biological target: Fuc(a1-2)Gal(b1-3)GlcNAc(b1-3)[Fuc(a1-2)Gal(b1-3)GlcNAc(b1-6)]GalNAc
# Outline: as §1
# [14] = biological target: Fuc(a1-2)Gal(b1-3)GlcNAc(b1-3)[Gal(b1-4)GlcNAc(b1-6)]Gal(b1-4)Glc
# Outline: as §1
# [15] = biological target: Fuc(a1-2)Gal(b1-3)GlcNAc(b1-3)[Neu5Ac(a2-6)Gal(b1-4)GlcNAc(b1-6)]Gal(b1-4)Glc
# Outline: as §1
# [16] = biological target: Fuc(a1-2)Gal(b1-3)GlcNAc6S
# Outline: as §1
# [17] = biological target: Fuc(a1-2)Gal(b1-3)[Fuc(a1-4)]GlcNAc
# Outline: as §1
# [18] = biological target: Fuc(a1-2)Gal(b1-3)[Fuc(a1-4)]GlcNAc(b1-2)Man(a1-3)[Fuc(a1-2)Gal(b1-3)[Fuc(a1-4)]GlcNAc(b1-2)Man(a1-3)]Man(b1-4)GlcNAc(b1-4)GlcNAc
# Outline: as §1
# [19] = biological target: Fuc(a1-2)Gal(b1-3)[Fuc(a1-4)]GlcNAc(b1-2)Man(a1-3)[Fuc(a1-2)Gal(b1-3)[Fuc(a1-4)]GlcNAc(b1-2)Man(a1-6)]Man(b1-4)GlcNAc(b1-4)[Fuc(a1-6)]GlcNAc(b1-4)[Fuc(a1-6)]GlcNAc
# Outline: as §1
# [20] = biological target: Fuc(a1-2)Gal(b1-3)[Fuc(a1-4)]GlcNAc(b1-3)[Fuc(a1-3)[Gal(b1-4)]GlcNAc(b1-6)]Gal(b1-4)Glc
# Outline: as §1
# [21] = biological target: Fuc(a1-2)Gal(b1-3)[Fuc(a1-4)]GlcNAc(b1-3)[Gal(b1-4)GlcNAc(b1-6)]Gal(b1-4)Glc
# Outline: as §1
# [22] = biological target: Fuc(a1-2)Gal(b1-4)Glc
# Outline: as §1
# [23] = biological target: Fuc(a1-2)Gal(b1-4)Glc6S
# Outline: as §1
# [24] = biological target: Fuc(a1-2)Gal(b1-4)GlcNAc
# Outline: as §1
# [25] = biological target: Fuc(a1-2)Gal(b1-4)GlcNAc(b1-2)Man
# Outline: as §1
# [26] = biological target: Fuc(a1-2)Gal(b1-4)GlcNAc(b1-2)Man(a1-3)[Fuc(a1-2)Gal(b1-4)GlcNAc(b1-2)Man(a1-6)]Man(b1-4)GlcNAc(b1-4)GlcNAc
# Outline: as §1
# [27] = biological target: Fuc(a1-2)Gal(b1-4)GlcNAc(b1-2)Man(a1-3)[Fuc(a1-2)Gal(b1-4)GlcNAc(b1-2)Man(a1-6)]Man(b1-4)GlcNAc(b1-4)[Fuc(a1-6)]GlcNAc
# Outline: as §1
# [28] = biological target: Fuc(a1-2)Gal(b1-4)GlcNAc(b1-2)[Fuc(a1-2)Gal(b1-4)GlcNAc(b1-4)]Man(a1-3)[Fuc(a1-2)Gal(b1-4)GlcNAc(b1-2)Man(a1-6)]Man(b1-4)GlcNAc(b1-4)GlcNAc
# Outline: as §1
# [29] = biological target: Fuc(a1-2)Gal(b1-4)GlcNAc(b1-3)Gal(b1-4)GlcNAc
# Outline: as §1
# [30] = biological target: Fuc(a1-2)Gal(b1-4)GlcNAc(b1-3)Gal(b1-4)GlcNAc(b1-2)Man(a1-3)[Fuc(a1-2)Gal(b1-4)GlcNAc(b1-3)Gal(b1-4)GlcNAc(b1-2)Man(a1-6)]Man(b1-4)GlcNAc(b1-4)GlcNAc
# Outline: as §1
binder,measurement,setting,value
B1,glycan array binding signal (z-score),[1],0.179
same,glycan array binding signal (z-score),[2],-0.111
same,glycan array binding signal (z-score),[3],-0.102
same,glycan array binding signal (z-score),[4],-0.301
same,glycan array binding signal (z-score),[5],0.156
same,glycan array binding signal (z-score),[6],-0.143
same,glycan array binding signal (z-score),[7],-0.296
same,glycan array binding signal (z-score),[8],-0.005
same,glycan array binding signal (z-score),[9],-0.139
same,glycan array binding signal (z-score),[10],-0.301
same,glycan array binding signal (z-score),[11],-0.168
same,glycan array binding signal (z-score),[12],-0.342
same,glycan array binding signal (z-score),[13],0.526
same,glycan array binding signal (z-score),[14],-0.659
same,glycan array binding signal (z-score),[15],-0.241
same,glycan array binding signal (z-score),[16],0.107
same,glycan array binding signal (z-score),[17],-0.428
same,glycan array binding signal (z-score),[18],-0.121
same,glycan array binding signal (z-score),[19],-0.061
same,glycan array binding signal (z-score),[20],-0.412
same,glycan array binding signal (z-score),[21],-0.148
same,glycan array binding signal (z-score),[22],-0.469
same,glycan array binding signal (z-score),[23],-0.217
same,glycan array binding signal (z-score),[24],-0.157
same,glycan array binding signal (z-score),[25],-0.283
same,glycan array binding signal (z-score),[26],-0.153
same,glycan array binding signal (z-score),[27],-0.397
same,glycan array binding signal (z-score),[28],-0.517
same,glycan array binding signal (z-score),[29],-0.388
same,glycan array binding signal (z-score),[30],0.071
